Assay results from paper PMC4336329 (PLoS ONE, 2015).
The campaign covered roughly 310,000 compounds. About 14,000 (4.5%) showed an effect of 50% or more. Effects have a minus sign here. The list shows a part of the results.

target: human ether-à-go-go-related gene (hERG) potassium channel (human, UniProt Q12809); experiment: primary screen, population patch clamp on CHO cells stably expressing hERG
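Also: peak tail current of the secondary pulse compared with the same well before compound.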

Chain of human ether-à-go-go-related gene (hERG) potassium channel (Q12809 whole entry, looked up): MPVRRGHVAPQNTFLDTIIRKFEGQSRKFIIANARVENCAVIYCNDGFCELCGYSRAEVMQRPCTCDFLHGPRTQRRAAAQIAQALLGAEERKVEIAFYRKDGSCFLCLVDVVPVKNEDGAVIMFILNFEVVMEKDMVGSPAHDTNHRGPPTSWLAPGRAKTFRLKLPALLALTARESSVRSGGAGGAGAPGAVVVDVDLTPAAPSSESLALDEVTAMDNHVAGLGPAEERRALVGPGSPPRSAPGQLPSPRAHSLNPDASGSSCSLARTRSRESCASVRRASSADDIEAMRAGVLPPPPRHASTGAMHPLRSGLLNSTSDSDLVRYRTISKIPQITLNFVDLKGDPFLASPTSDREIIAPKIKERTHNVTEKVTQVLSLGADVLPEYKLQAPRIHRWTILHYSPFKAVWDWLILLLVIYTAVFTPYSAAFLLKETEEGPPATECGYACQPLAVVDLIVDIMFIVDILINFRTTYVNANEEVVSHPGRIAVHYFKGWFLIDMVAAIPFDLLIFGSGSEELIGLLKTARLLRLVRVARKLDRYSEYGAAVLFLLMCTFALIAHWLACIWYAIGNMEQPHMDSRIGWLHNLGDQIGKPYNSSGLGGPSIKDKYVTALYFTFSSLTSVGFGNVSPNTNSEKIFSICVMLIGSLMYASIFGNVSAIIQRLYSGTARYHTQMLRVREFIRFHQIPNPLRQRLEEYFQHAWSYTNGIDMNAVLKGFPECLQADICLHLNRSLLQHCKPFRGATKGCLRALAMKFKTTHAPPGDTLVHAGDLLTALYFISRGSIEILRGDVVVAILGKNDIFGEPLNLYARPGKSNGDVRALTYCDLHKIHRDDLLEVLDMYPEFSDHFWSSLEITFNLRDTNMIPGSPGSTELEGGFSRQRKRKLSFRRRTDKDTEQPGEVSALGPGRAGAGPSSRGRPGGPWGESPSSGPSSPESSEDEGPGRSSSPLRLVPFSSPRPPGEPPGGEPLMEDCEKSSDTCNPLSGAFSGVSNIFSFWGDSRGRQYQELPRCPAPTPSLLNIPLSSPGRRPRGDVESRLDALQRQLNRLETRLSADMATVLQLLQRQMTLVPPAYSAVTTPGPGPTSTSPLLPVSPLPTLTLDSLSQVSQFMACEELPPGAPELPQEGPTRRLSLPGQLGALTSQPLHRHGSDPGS

SMILES	hERG current change (%, negative = inhibition) at 10uM
N#Cc1cn(-c2ccccc2)nc1-c1ccc2c(c1)OCCO2	11.8%
COc1ccc(Cc2nc(-c3ccncc3)no2)cc1	2.01%
O=C(CSc1nc2ccccc2s1)NC1CCCC1	6.24%
COC(=O)C1=C(C)NC(=O)CC1c1ccccc1F (centres unmarked)	-12.8%
Cc1ccc(C)c(CSc2nnc(-c3cccnc3)n2N)c1	29.1%
COC(=O)CSc1nnc(CNC(=O)c2ccc(OC)cc2OC)n1C	-6.24%
CSC1=NSC2=NC(=O)/C(=C\c3ccc(OC(=O)c4ccco4)cc3)C(=N)N12	9.54%
CCN1CCc2c(OCc3ccc(C(=O)OC)o3)cccc2C1=O	-11.7%
COc1ccc(-c2cnn(-c3ccccc3)c2N)cc1OC	1.61%
Cc1ccc(S(=O)(=O)Nc2ncnc3ccccc23)cc1	9.77%
Cn1c(O)c(C=NC2CCN(Cc3ccccc3)CC2)c(=O)[nH]c1=O	-26.5%
CNC(=O)CN1C(=O)NC(Cc2c[nH]c3ccccc23)C1=O (centres unmarked)	-5.85%
FC(F)(F)c1cccc(NC(=S)NCc2ccc(Cl)cc2)c1	8.76%
Cc1ccc(C(=O)NC(C(=O)OCc2cn3cc(Cl)ccc3n2)C(C)C)cc1 (centres unmarked)	-37.9%
CN1C(=O)/C(=C\c2ccc(Br)s2)C(=O)NC1=S	15.5%
CC(C)(C)c1nc(SCC(=O)NCc2cccs2)c2ccccc2n1	-0.222%
COCCCNC(=O)C1CCCN(S(=O)(=O)c2ccc(C)cc2)C1 (centres unmarked)	-12.9%
O=C(CN1C(=O)C(=O)c2ccccc21)NCCc1ccccc1	15.7%
CC(=O)c1cccc(S(=O)(=O)N(C)C2CCN(C)CC2)c1.Cl	-2.43%
Br.O=C(Cn1c(NCCCO)nc2ccccc21)c1cccs1	-11.5%
CC(C)Cc1nnc(NC(=O)c2ccncc2)s1	-13.2%
CCOc1ccc(NC(=O)N2CCC(c3ccc(C)cc3)C2)cc1 (centres unmarked)	4.48%
CC(=O)N1CN2CN(C(C)=O)CC(C(=O)c3ccc([N+](=O)[O-])cc3)(C2)C1	-34%

SMILES	hERG current change (%, negative = inhibition) at 10uM
CC1=C(C(=O)OC(C)C)C(c2ccc(C)o2)NC(=O)N1 (centres unmarked)	-6.55%
CCCOc1ccccc1/C=C1/C(=O)ON=C1C	20.7%
O=[N+]([O-])c1ccc(C2CCCC/C2=N/OCc2ccccc2F)c([N+](=O)[O-])c1 (centres unmarked)	3.91%
COc1c(Br)cc(Br)cc1C(=O)O	7.51%
O=C(c1cc(COc2ccc(F)cc2Cl)on1)N1CCN(C2CCCC2)CC1	-61.4%
CCOC(=O)Nc1nnc(CCc2ccccc2)s1	-4.48%
COc1ccccc1N1CCN(C(=O)Nc2ccc(F)c(Cl)c2)CC1	-5.46%
CC(=O)N1c2ccc(S(=O)(=O)NCC3CCC(C(=O)Nc4ncccc4C)CC3)cc2CC1C (centres unmarked)	-5.43%
CN1c2cccc3cccc(c23)N(C)C1c1cccs1	3.73%
CC(=O)N1CCN(S(=O)(=O)c2ccc(C)cc2)C1c1ccc(N(C)C)cc1 (centres unmarked)	-10.1%
O=Cc1c(N2CCN(c3ccccc3)CC2)nc2ccccn2c1=O	-22.7%
COc1ccc(S(=O)(=O)N[C@H](C(=O)N2CC[C@@]3(O)CCCC[C@H]3C2)c2ccccc2)cc1	-16.1%
N#Cc1c(N)nc(SCc2ccccc2)c(C#N)c1-c1ccco1	-38.1%
COCCCNC(=O)/C(C#N)=C1\N=C(NC(=O)c2cccs2)c2ccccc21	-6.61%
CCN(CC)C(=O)COC(=O)c1cc(-c2ccc(OC)cc2)nc2ccccc12	-0.253%
Cc1ccc(OCc2cc(C(=O)N3CCN(C4CCCCC4)CC3)no2)cc1C	-42.5%
COc1ccc(CC(=O)NC(CC(=O)O)c2cccc([N+](=O)[O-])c2)cc1 (centres unmarked)	17.4%
NNc1nc(Nc2ccc([N+](=O)[O-])cc2)nc(N2CCCCCC2)n1	23.7%
Cc1ccc(C)c(Oc2nnnn2-c2ccccc2)c1	-5.89%
COc1ccc(S(=O)(=O)N2CCN(C(=O)c3cccs3)CC2)cc1	-32.4%
CC1=C(C(N)=O)C(c2cccs2)n2ncnc2N1 (centres unmarked)	4.49%
O=C(CSCc1ccccc1Br)N/N=C/c1ccccc1C(=O)O	24.3%
O=C1[C@H]2[C@@H](c3ccc(F)cc3)N3C(=O)N(c4cccc(Cl)c4)C(=O)[C@@]3(Cc3ccccc3)[C@H]2C(=O)N1C1CCCCC1	5.3%

SMILES	hERG current change (%, negative = inhibition) at 10uM
O=C(Nc1ccccc1F)C1CCCN(S(=O)(=O)c2ccc(-n3cnnn3)cc2)C1 (centres unmarked)	13.7%
CC(=O)/C(N=Nc1ccc(-n2ccc(C(F)(F)F)n2)cc1)=C(\C)O	2.31%
O=C(Nc1ccccc1C(=O)Nc1nnc(C(F)(F)F)s1)c1ccccc1	28.4%
O=C(Oc1ccccc1Cl)C1CCN(C(=O)c2ccc(F)cc2)CC1	-16.3%
Cc1ccsc1C(=O)Nc1cccc(-n2cnnn2)c1	-8.26%
COc1ccc(CCNC(=O)C2CC(=O)N(CCc3ccccc3)C2)cc1OC (centres unmarked)	6.16%
Cc1ccc(CN2CCC(=O)N2)cc1	19.9%
O=C(COC(=O)/C=C/c1cccc(Cl)c1)NC1CCCC1	13%
Cc1c([N+](=O)[O-])cc(C(=O)N2CCOCC2)cc1[N+](=O)[O-]	0.522%
Fc1ccc(Nc2nc(-c3ccncc3)nc3ccccc23)cc1F	4.83%
O=C(NCCN1CCCC1)C1CC(=O)N(C2CCCCC2)C1 (centres unmarked)	14.1%
O=C(O)c1ccccc1SCC(=O)N1CCc2ccccc21	13.4%
Cc1cccc(NC(=O)CN2C(=O)N/C(=C/c3ccc(C)o3)C2=O)c1	10.1%
C=CCNc1nc(C(=O)OCC(=O)c2ccc(F)cc2)cs1	-4.15%
O=[N+]([O-])CC1(n2nc3ccccc3n2)CCCCC1	0.687%
CC(=O)N(CCS(=O)(=O)c1ccc(Cl)cc1)Cc1cccs1	-0.348%
CCOc1ccc(N2CC(C(=O)Nc3ncccc3C)CC2=O)cc1 (centres unmarked)	-8.66%
Cc1ccc(S(=O)(=O)N(C)C2(C)CCS(=O)(=O)C2)cc1 (centres unmarked)	-4.03%
Cc1cc(Nc2cccc(C)c2C)n2nc(C)nc2n1	-11.9%
CC(NC(=O)CCCCCCN1C(=O)c2ccccc2C1=O)c1ccc2c(c1)CCCC2 (centres unmarked)	-3.24%
Cc1ccc(NS(=O)(=O)c2ccc(C)c(C(=O)N3CCOCC3)c2)cc1	5.4%
CC(=O)OCc1ccccc1Sc1ccccc1C(=O)NCc1ccccc1	-20.5%
CC(C)CN1CCC(C(=O)NCC2CCCO2)CC1.O=C(O)C(=O)O (centres unmarked)	-3.21%

SMILES	hERG current change (%, negative = inhibition) at 10uM
CCOC(=O)C1CCCN(c2c(NCCCN(CC)c3cccc(C)c3)c(=O)c2=O)C1 (centres unmarked)	-32.7%
c1ccc2c(c1)nc(N1CCOCC1)c1nncn12	-5.44%
CSCCC(Nc1ccc(S(=O)(=O)N2CCOCC2)cc1[N+](=O)[O-])C(=O)OCC(=O)N(C(C)C)C(C)C (centres unmarked)	-23.6%
Cc1ccc2nc(-c3ccc(NC(=S)NC(=O)CC(C)C)cc3)sc2c1	2.02%
O=C(CN1C(=O)C2C3C=CC(C3)C2C1=O)OCC(=O)c1ccc([N+](=O)[O-])cc1 (centres unmarked)	18%
CN(C)C(=O)OCc1c(-c2ccccc2)ncc2ccccc12	-6.88%
CCOc1cc(C)c(S(=O)(=O)Nc2ccc3cn[nH]c3c2)cc1C	25.2%
O=C(c1ccc(Br)o1)N1CCN(Cc2ccc3c(c2)OCO3)CC1	-33.7%
CC(=O)c1ccc(N2CCN(c3ccc(S(=O)(=O)NCCN(C)C)cc3[N+](=O)[O-])CC2)cc1	-23.2%
CN(C)S(=O)(=O)c1ccc(C(=O)Nc2nnc(Cc3ccccc3)s2)cc1	4.59%
CCC(Sc1nc(=O)cc(N)n1-c1cccc(C)c1)C(=O)Nc1cc(C)on1 (centres unmarked)	6.89%
CCc1nc(NCC2CCCO2)c(C#N)c2c1COC(C)(C)C2 (centres unmarked)	-7.98%
COC(=O)c1c(NC(C)=O)sc(Cc2ccccc2)c1C	7.36%
O=C(c1cccs1)N1CCN(C/C=C/c2ccccc2)CC1	-41.7%
CCCc1cc(=O)oc2cc(OCC(=O)N3CCN(Cc4ccc5c(c4)OCO5)CC3)ccc12	-57%
CC(C)OC(=O)CCCCCN1C(=O)CSC1=S	-7.33%
NC(=O)c1nsc(C(=O)N(c2cccc(F)c2)C(C(=O)NCc2ccccc2)c2ccc(O)cc2)c1N (centres unmarked)	-22.4%
O=C(C1CCCN(S(=O)(=O)c2ccc([N+](=O)[O-])cc2)C1)N1CCCCC1 (centres unmarked)	-62%
COc1ccc(C(=O)O/N=C(\N)c2ccccc2)cc1OC	8.87%
N#CC1=C(N)NC(SCC(=O)Nc2ccccc2)=C(C#N)C12CCCCC2	-7.22%
